PubChem BioAssay AID1768 (National Center for Advancing Translational Sciences (NCATS), 2009)
Among all 270,000 compounds or so, about 620 (0.23%) were called active. Inconclusive results, whose numbers are uncertain, are shown with a selection of clear calls. The call rests on the fitted dose curve; in most records, active means well fitted inhibition curve with a large enough effect in the polarisation, with a control signal flat (not every such curve was filed as active); inconclusive means small, poorly fitted or top-dose-only effect, or effect the other way, or a change in a side signal; inactive means no such curve, though single readings can be large or run the other way; the % refers to the polarisation. Potencies beside an inconclusive call are fits to weak or partial responses and may not hold up. “Side channel” marks fits to a control or component signal instead of the main read-out.

The molecules below were run against Menin (Homo sapiens) (UniProt O00255) (assay: qHTS Assay for Inhibitors Targeting the Menin-MLL Interaction in MLL Related Leukemias: Competition With Texas Red Labeled MLL-derived Mutant Peptide). Conditions: fluorescence polarization; FP activity change, negative = inhibition: at 61.6 µM (top of the series).
UniProt O00255, sequence (O00255 whole entry, looked up): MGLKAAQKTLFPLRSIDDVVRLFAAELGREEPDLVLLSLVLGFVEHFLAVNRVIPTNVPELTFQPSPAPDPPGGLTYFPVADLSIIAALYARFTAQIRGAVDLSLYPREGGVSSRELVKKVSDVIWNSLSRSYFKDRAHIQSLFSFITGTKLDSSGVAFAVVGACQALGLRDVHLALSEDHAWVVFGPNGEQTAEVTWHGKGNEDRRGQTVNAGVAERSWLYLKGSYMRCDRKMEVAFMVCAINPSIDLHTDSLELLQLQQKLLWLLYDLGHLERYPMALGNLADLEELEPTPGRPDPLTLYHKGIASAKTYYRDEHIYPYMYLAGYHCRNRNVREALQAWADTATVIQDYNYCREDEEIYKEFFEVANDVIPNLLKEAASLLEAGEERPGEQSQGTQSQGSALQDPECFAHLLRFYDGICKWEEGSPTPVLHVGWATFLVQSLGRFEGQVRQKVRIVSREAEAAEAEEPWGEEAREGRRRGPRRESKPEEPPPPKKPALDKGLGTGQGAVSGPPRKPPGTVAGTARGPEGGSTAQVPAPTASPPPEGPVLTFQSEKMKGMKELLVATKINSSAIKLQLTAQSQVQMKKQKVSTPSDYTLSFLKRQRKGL
Potency means the concentration at half of the fitted maximal effect; tags describe the fitted curve by direction and shape or compound fluorescence and quenching.
Wherever FP activity change, negative = inhibition is given: % of control where 0% means no effect.

FP activity change, negative = inhibition, inactive:
C=CCn1c(SCC(=O)O)nnc1-c1cccs1 2.91%
COc1ccc(S(=O)(=O)Nc2cc(S(=O)(=O)c3ccccc3)c(O)cc2C)cc1 10%
C/C=C/C(=O)C[C@H]1CC[C@@H](C)[C@@H](CCO)O1 -2.77%
CCC(=O)Nc1nnc(-c2ccccn2)o1 11.2%
CC1(C)CC(=O)C=C(N2CCN(C3=CC(=O)CC(C)(C)C3)CC2)C1 -3.21%

Potency, inconclusive:
O=c1c(O)c(-c2ccccc2)oc2ccc3occc3c12 39.8 µM [inhibitor, single point]
COc1ccccc1C1C2=C(N=c3s/c(=C/c4cccc(OCC(=O)O)c4)c(=O)n31)c1ccccc1CC2 (stereo not drawn) 8.91 µM [quencher, side channel, full curve, poor fit]
Cc1ccc(NC(=O)CS(=O)CC(=O)Nc2ccc3c(c2)OCO3)cc1Cl (stereo not drawn) 12.6 µM [quencher, side channel, partial curve]
O=C1CS/C(=C\[N+](=O)[O-])N1c1ccc(OC(F)(F)F)cc1 25.1 µM [quencher, side channel, partial curve]
C#CC1(NC(=O)N(C)C)CCCCC1 11.2 µM [inhibitor, single point]
O=C(Cc1ccc(Cl)cc1)N1CCN(c2ccc(F)cc2)CC1 39.8 µM [inhibitor, single point]
O=C1CCC(c2ccccc2)=NN1Cc1c(F)cccc1Cl 25.1 µM [fluorescent, side channel, single point]
C=CCNc1sc(C(=O)c2ccc(Br)s2)c(N)c1C#N 39.8 µM [inhibitor, single point]
COc1ccc(C)cc1NC(=O)C1CCN(C(=O)C2CC(=O)N(c3ccc(C)cc3)C2)CC1 (stereo not drawn) 25.1 µM [inhibitor, single point]
COc1ccc(-c2nnc(NC(=O)c3ccc(S(=O)(=O)N4COCC4(C)C)cc3)o2)cc1 39.8 µM [quencher, side channel, single point]
CCOC(=O)c1c(NC(=O)CCN2C(=O)c3ccccc3C2=O)sc(C(=O)OC(C)C)c1C 15.8 µM [fluorescent, side channel, partial curve]
CCOC(=O)C1=C(C)Nc2ccc(C)cc2S1 31.6 µM [quencher, side channel, partial curve]
COc1cc(C2C(C(=O)c3ccc(C)o3)=C(O)C(=O)N2c2cc(C)on2)ccc1OCc1ccccc1 (stereo not drawn) 1.58 µM [quencher, side channel, partial curve]
Cc1cc(NC(=O)c2ccc(S(=O)(=O)N3CCc4ccccc43)cc2)no1 11.2 µM [inhibitor, partial curve]
O=C(Nc1cccc(F)c1)c1ccc2c(c1)OCO2 39.8 µM [quencher, side channel, single point]
COc1ccc(F)cc1S(=O)(=O)N1CCN(Cc2ccc3c(c2)OCO3)CC1 3.55 µM [inhibitor, partial curve]
Nc1nc(-c2ccccc2)c(N=Nc2cccnc2)s1 11.2 µM [quencher, side channel, partial curve]
COc1cc(-c2nc(-c3ccccc3)c(-c3cccs3)[nH]2)cc(OC)c1O 31.6 µM [quencher, side channel, single point]
Cc1ccc(C(=O)N2CCc3cc4c(cc3C2C)OCCCO4)cc1 (stereo not drawn) 8.91 µM [inhibitor, partial curve]
CC1(C)CC(C)(O)P(=O)(c2ccccc2)O1 (stereo not drawn) 3.16 µM [inhibitor, partial curve]
O=C(Nc1ccc(F)c(F)c1)c1oc2ccccc2c1NC(=O)C1CCCO1 (stereo not drawn) 12.6 µM [quencher, side channel, partial curve]
COc1cc(NC(=S)NCCc2ccc(S(N)(=O)=O)cc2)c(OC)cc1Cl 20 µM [quencher, side channel, single point]
Cc1cc(C)n2nc(N)c(N=Nc3ccc4c(c3)OCO4)c2n1 6.31 µM [quencher, side channel, partial curve]
Cc1ccc(C)c(N2CCN(CCCc3ccccc3)CC2)c1 5.62 µM [inhibitor, full curve, poor fit]
O=C(NCc1ccco1)C1CC(c2ccc(Cl)cc2)=NO1 (stereo not drawn) 22.4 µM [fluorescent, side channel, single point]
Cc1sc2ncnc(OCC(=O)N3CCN(C(=O)c4ccco4)CC3)c2c1C 39.8 µM [inhibitor, single point]
COc1ccccc1C(=O)NC(=S)Nc1cccnc1Cl 17.8 µM [quencher, side channel, single point]
O=C(CCc1nc(-c2ccccc2)no1)NCc1ccco1 25.1 µM [quencher, side channel, partial curve, poor fit]
CCOc1cc(C(=O)N2CCC(CC3CC(c4cccc(Br)c4)=NO3)(C(=O)NCC3CCCCC3)CC2)cc(OCC)c1OCC (stereo not drawn) 3.98 µM [fluorescent, side channel, full curve, poor fit]
C=CCn1c(=O)c(C(=O)Nc2cc(C)ccn2)c(O)c2ccccc21 12.6 µM [inhibitor, partial curve]
CC1(C)Cc2c(C#N)c(N3CCN(C(=O)c4ccco4)CC3)nc(-c3ccco3)c2CS1 17.8 µM [quencher, side channel, single point]
Cc1cccc(NC(=S)NCc2ccccc2Cl)c1C 31.6 µM [fluorescent, side channel, single point]
COc1cc(NC(=O)c2ccco2)c(OC)cc1NC(=O)CSc1ncc(-c2ccc(F)cc2)[nH]1 0.631 µM [quencher, side channel, full curve, poor fit]
